# Laboratory results published in PubChem BioAssay AID651820 (National Center for Advancing Translational Sciences (NCATS), 2012).
# Hit rate of the full screen: of about 340,000 compounds, about 12,000 (3.5%) were called active. Inconclusive means that the source gave no clear call. Such entries were picked first, then a sample of the others. Calls come from the whole dose curve; as a rule, active = well fitted inhibition curve with a large enough effect; inconclusive = small, poorly fitted or top-dose-only effect, or another doubt; inactive = no such curve, though single readings can be large or run the other way. No potency is given beside an inconclusive call; the fits are too rough.
# Test: qHTS Assay for Inhibitors of Hepatitis C Virus (HCV)
# Conditions: Huh7.5.1 HCVcc-Cre (HCVcc is cell-culture hepatitis C virus) infection, luciferase reporter, 44 h; activity change, negative = inhibition: at 41.8 µM (top of the series) unless noted
# Method in brief: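 Whole-lifecycle infectious HCVcc-Cre system; cells 1,000/well, compound then virus (~0.5 moi) added 4 h after plating, 44 h culture. Luciferase read 15 sec following 15 min substrate incubation, room temp.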
# % is set by controls: 0 for no effect and ±100 for the full control effect; potency is the fitted concentration of half-maximal effect; tags give direction and shape of the fitted curve.
Structure (SMILES),"activity change, negative = inhibition",Potency
CCCN1CCC(=O)N([C@H](CO)c2ccccc2)CC1,inactive: 22.9%,–
CNC(=S)N(CCc1c(C)[nH]c2ccc(Cl)cc12)Cc1cccnc1,–,"inconclusive [inhibitor, single point]"
CC1=CC(c2ccccc2)n2nc(N3C(=O)c4ccccc4C3=O)nc2N1 (stereo not given),inactive: 7.45%,–
N#C/C(=C\c1cn[nH]c1-c1ccccc1)C(=O)NC1CCCCCC1,–,active: 25.1 µM
Oc1ccc(/C=N/Nc2ccnc3cc(Cl)ccc23)c(O)c1,–,active: 10 µM
COc1ccc(C(=O)C2CCN(S(=O)(=O)c3ccc4c(c3)OCCO4)CC2)cc1,–,"inconclusive [inhibitor, single point]"
O=C1c2cccc3cc([N+](=O)[O-])cc(c23)C(=O)N1CCN1CCCC1,–,active: 1.12 µM
COc1cc2ncc(S(=O)(=O)c3ccccc3)c(N3CCCC(C)C3)c2cc1OC (stereo not given),–,active: 11.2 µM
Cc1ccc(-c2c(C(=O)N/N=C/c3ccoc3)nnn2-c2nonc2N)cc1,–,"inconclusive [inhibitor, single point]"
CCN1CCCC1CNC(=O)CSCc1nc(-c2ccccc2C)oc1C (stereo not given),–,"inconclusive [inhibitor, single point]"
O=C(NCCCN1CCCC1=O)c1sc2ccccc2c1Cl,inactive: -2.45%,–
CCOC(=O)N1CCN(S(=O)(=O)c2c(C)nc3scc(C)n3c2=O)CC1,–,"inconclusive [inhibitor, single point]"
COc1ccc(C(=O)Nc2nnc(SCC(=O)NCc3ccco3)s2)c(OC)c1,–,"inconclusive [inhibitor, partial curve, poor fit]"
CC(Oc1cc(F)ccc1[N+](=O)[O-])C(=O)Nc1ccc(S(=O)(=O)N2CCCC2)cc1 (stereo not given),–,"inconclusive [inhibitor, single point]"
N#Cc1ccccc1OCC(=O)Nc1cccc(S(=O)(=O)N2CCCC2)c1,–,"inconclusive [inhibitor, single point]"
CN(C)CC1CC/C(=C\c2ccc(O)cc2)C1=O (stereo not given),–,"inconclusive [inhibitor, single point]"
CN(C)CCCn1c(SCC(=O)N2c3ccccc3Sc3ccccc32)nc2ccccc2c1=O,–,active: 12.6 µM
COc1ccc(CN(C(=O)c2snc(C(N)=O)c2N)C(C(=O)NC2CCCC2)c2ccco2)cc1 (stereo not given),inactive: -25.9%,–
COc1cccc(-c2ccc(NC(=O)C3CCCN(Cc4cc(C)[nH]n4)C3)cc2)c1 (stereo not given),–,"inconclusive [inhibitor, partial curve, poor fit]"
Cc1ccc(-n2ncc3c(N4CCC5(CC4)OCCO5)ncnc32)c(C)c1,–,"inconclusive [inhibitor, single point]"
Cc1c(Nc2nc(-c3ccc(Cl)cc3)cs2)c(=O)n(-c2ccccc2)n1C,–,"inconclusive [inhibitor, single point]"
COc1cc2c(cc1OC)C1(C)N(CC2)C(C(C)=O)=NN1c1ccc(Cl)cc1 (stereo not given),–,"inconclusive [inhibitor, partial curve]"
Fc1ccc(Oc2nc(-c3ccccn3)nc3ccccc23)cc1,inactive: -73.4%,–
O=C(Nc1ccc(N2CCCCC2)cc1)c1cccnc1,–,"inconclusive [inhibitor, single point]"

Structure (SMILES),"activity change, negative = inhibition",Potency
O=C(NNc1nc2ccccc2s1)Nc1ccc(F)cc1,inactive: 4.9%,–
COc1cc(CN2CCC(C(=O)NCC(C)(C)CN(C)C)CC2)ccc1OCc1ccccc1,–,"inconclusive [inhibitor, partial curve]"
Cc1ccc(/C=[N+](\[O-])c2ccc(N(C)C)cc2)c2nsnc12,–,"inconclusive [inhibitor, single point]"
O=C1C2CC=C(Cl)CC2C(=O)N1CCCCCCN1C(=O)C2CC=C(Cl)CC2C1=O (stereo not given),inactive: -13.2%,–
COCCN(C(=O)CSCc1ccccc1)c1c(N)n(Cc2ccccc2)c(=O)[nH]c1=O,inactive: 6.32%,–
COc1cc2nc(CN(C)Cc3ccc(F)cc3)[nH]c(=O)c2cc1OC,–,"inconclusive [inhibitor, single point]"
CC1=NC(=O)C(N=Nc2ccccc2)N1c1ccccc1 (stereo not given),inactive: 5.86%,–
CCC(CC)C(=O)Nc1ccc([N+](=O)[O-])cn1,inactive: 0.827%,–
COc1cc(-c2noc(C)c2C(=O)NCCc2cccs2)cc(OC)c1OC,–,"inconclusive [inhibitor, partial curve, poor fit]"
CCC(=O)N1N=C(c2cccs2)CC1c1ccc(C)cc1 (stereo not given),inactive: -15.1%,–
CCN1CCSc2ccc(C(=O)NCc3cccc(F)c3)cc21,–,"inconclusive [inhibitor, partial curve]"
COc1ccc(CNc2ncnc3c2[nH]c2ccccc23)cc1,–,active: 5.01 µM
Cn1cccc1/C=C(\C#N)c1ccccc1,–,"inconclusive [inhibitor, single point]"
CCOC(=O)C1(CCOc2ccccc2)CCN(Cc2ccc(O)c(OCC)c2)CC1,–,"inconclusive [inhibitor, single point]"
CC(C)CC(=O)NC(=S)Nc1ccc(S(=O)(=O)Nc2nccs2)cc1,inactive: 22.8%,–
CCOC(=O)C1(CCCc2ccccc2)CCN(C2CCSCC2)CC1,–,"inconclusive [inhibitor, single point]"
COc1ccccc1OCCSc1ncnc2nc[nH]c12,inactive: -29%,–
O=C(/C=C/c1ccco1)NC(=S)Nc1ccccc1N1CCOCC1,inactive: -1.6%,–
CC(C)(C)OC(=O)N1CCN(C(=O)c2[nH]cnc2C(=O)NCc2ccccc2)CC1,–,"inconclusive [inhibitor, single point]"
COc1ccc(NC(=O)Cn2nnc(-c3ccccc3NC(=O)c3cccs3)n2)cc1,–,"inconclusive [inhibitor, partial curve]"
O=C1NC(=S)S/C1=C/c1ccc(N2CCOCC2)o1,–,"inconclusive [inhibitor, partial curve, poor fit]"
N#CCc1ccc(C(=O)c2ccccc2F)s1,–,"inconclusive [inhibitor, single point]"
NS(=O)(=O)c1ccc(N/N=C/c2ccccn2)c([N+](=O)[O-])c1,–,"inconclusive [inhibitor, partial curve]"
CS(=O)c1ccccc1-c1nc(-c2ccc([N+](=O)[O-])cc2)no1 (stereo not given),inactive: 35.2%,–

Structure (SMILES),"activity change, negative = inhibition",Potency
CCCCn1c(=N)n(CC(O)c2ccccc2)c2ccccc21 (stereo not given),–,"inconclusive [inhibitor, single point]"
c1ccc(-c2nc3c4ccccc4ccn3c2CN2CCOCC2)cc1,–,"inconclusive [inhibitor, single point]"
Cc1cc(=O)oc2c(C)c(OCC(=O)N3CCN(Cc4ccc5c(c4)OCO5)CC3)ccc12,–,"inconclusive [inhibitor, single point]"
COc1ccc(C)c2sc(N3CCCC3)nc12,–,"inconclusive [inhibitor, single point]"
Cc1ccc(N2C(N)=C(C#N)C(c3cccnc3)C3=C2CCCC3=O)cc1 (stereo not given),inactive: -7.27%,–
Cc1ccc(S(=O)(=O)Nc2cccc(C(=O)NCC(C)(C)N3CCOCC3)c2)cc1F,inactive: 7.48%,–
COc1ccc(-c2csc(NC(=O)C3CC(=O)N(Cc4ccccc4)C3)n2)cc1OC (stereo not given),–,"inconclusive [inhibitor, partial curve]"
COC(=O)C1=C(c2ccc(Cl)c(C(F)(F)F)c2)C[C@@H]2CC[C@H]1N2C(=O)NC1CCCCC1,–,"inconclusive [inhibitor, single point]"
CCN1CCN(S(=O)(=O)c2ccc(Cl)c(C(=O)N(CC)Cc3ccccc3)c2)CC1,–,"inconclusive [inhibitor, single point]"
Cc1c(C(C)(C)O)[nH]c2ccc(C#N)cc12,–,"inconclusive [inhibitor, single point]"
COc1ccccc1NC(=O)c1sc(Cl)nc1C,–,"inconclusive [inhibitor, partial curve]"
O=C(Nc1ccc2c(c1)CCC2)c1cccc(S(=O)(=O)N2CCN(c3ccccc3)CC2)c1,–,active: 0.562 µM
O=C(NNS(=O)(=O)c1ccccc1[N+](=O)[O-])c1cccc([N+](=O)[O-])c1,inactive: 17.9%,–
O=c1[nH]c(=O)n(Cc2ccccc2)c2nc(-c3ccc(Oc4ccc(F)cc4)c([N+](=O)[O-])c3)n(CCO)c12,–,"inconclusive [inhibitor, single point]"
COc1ccc(OC)c(S(=O)(=O)N2CCC(C(=O)N3CCN(c4ccc(F)cc4)CC3)CC2)c1,–,"inconclusive [inhibitor, single point]"
COc1cc(/C=N/NC(=S)NC2CC3CC2C2C=CCC32)ccc1O (stereo not given),–,"inconclusive [inhibitor, single point]"
CCCCN(C)C(=O)C1CCN(Cc2ccc(OCc3ccccc3)cc2)CC1,–,"inconclusive [inhibitor, partial curve]"
Cc1cc(C)c([N+](=O)[O-])cc1NC(=O)CCSc1ccccc1Cl,–,"inconclusive [inhibitor, partial curve]"
Cc1c(C(=O)N/N=C/C(C)C)[nH]c2ccc([N+](=O)[O-])cc12,inactive: -28.5%,–
CCOC(=O)C1(Cc2cccc(F)c2)CCN(Cc2ccc(COC)o2)CC1,–,"inconclusive [inhibitor, single point]"
CC(C)(C)CC(C)(C)N=C1Nc2ccccc2NC12C[C@H]1CCC(=O)N3CC[C@@H](C2)[C@@H]13 (stereo not given in full),inactive: -12.1%,–
O=C(CCCN1C(=O)c2cccc3cccc(c23)C1=O)NCc1ccco1,inactive: -16.8%,–
